Common to all, as to assay: Primary Screen for Target Class Profiling of Small Molecule Inhibitors of Methyltransferases
Experiment [1] has as its target Glycine N-methyltransferase (Homo sapiens) (UniProt Q14749). To be noted: purified enzyme, MTase-Glo SAH luminescence; measured here: GNMT inhibition; at 40 µM; stronger effect = lower value. The procedure, abridged: (§1)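 Each enzyme was assayed with SAM and its substrate. SAH formation detected by MTase-Glo luminescence; single-point 40 uM screen[…].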
Experiment [2] deals with Guanidinoacetate N-methyltransferase (Homo sapiens) (UniProt Q14353). To be noted: purified enzyme, MTase-Glo SAH luminescence; measured here: GAMT inhibition; at 40 µM; stronger effect = lower value. In outline:
as §1

In experiment [3] the target is Histamine N-methyltransferase (Homo sapiens) (UniProt P50135). As to conditions: purified enzyme, MTase-Glo SAH luminescence; measured here: HNMT inhibition; at 40 µM; stronger effect = lower value. The procedure, abridged: as §1
The target in experiment [4] is Nicotinamide N-methyltransferase (Homo sapiens) (UniProt P40261). To be noted: purified enzyme, MTase-Glo SAH luminescence; measured here: NNMT inhibition; at 40 µM; stronger effect = lower value. In outline:
as §1

In experiment [5] the target is Phenylethanolamine N-methyltransferase (Homo sapiens) (UniProt P11086). To be noted: purified enzyme, MTase-Glo SAH luminescence; measured here: PNMT inhibition; at 40 µM; stronger effect = lower value. In outline:
as §1

For 29 compounds, activity change, negative = inhibition results are on record in PubChem BioAssay AID1745853 (National Center for Advancing Translational Sciences (NCATS), 2022).

This is one part of the list. The main result of the screen is listed elsewhere. These columns were measured beside it and carry no call.
On the % scale 0 is the no-effect control and ±100 the full control effect.

As for `CC(C)(C)OC(=O)N1CCC(OCc2nc(-c3ccncc3)no2)CC1`, the activity change, negative = inhibition was 3% in experiment [1]; 0.523% in experiment [2]; 1.66% in experiment [3]; -12.8% in experiment [4]; -5.5% in experiment [5].

Regarding `CN1C(=O)c2cc(C(=O)NC3CCCCCC3)nn2CC1(C)C(=O)NC1CCCC1` (stereo not given), the activity change, negative = inhibition in experiment [1] is 2.54%; in experiment [2], 1.04%; in experiment [3] it was -0.427%; in experiment [4], 2.37%; in experiment [5] it was 1.83%.

`CCCn1c(=O)c2ccccc2n2c(=O)n(CC(=O)Nc3cc(OC)cc(OC)c3)nc12`: the activity change, negative = inhibition amounted to 5.43% in experiment [1]; 0.837% in experiment [2]; 10.2% in experiment [3]; 0.556% in experiment [4]; 2.89% in experiment [5].

Regarding `CC(C)NC(=O)c1ccc2c(=O)n(C(C)C)c3nn(CC(=O)N(C)c4ccccc4)c(=O)n3c2c1`, the activity change, negative = inhibition turned out to be 6.39% in experiment [1]; 1.98% in experiment [2]; 2.45% in experiment [3]; 0.441% in experiment [4]; 5.45% in experiment [5].

As for `COCc1nc(NCCCN2CCOCC2)cc(C2CC(N)C2)n1` (stereo not given), the activity change, negative = inhibition in experiment [1] is -2.26%; in experiment [2], -3.72%; in experiment [3] it was -2.75%; in experiment [4], -7.11%; in experiment [5], -5.59%.

On to `Cn1cnc([N+](=O)[O-])c1Sc1ncnc2nc[nH]c12`, for which the activity change, negative = inhibition in experiment [1] is 3.91%; in experiment [2], 3.09%; in experiment [3] it was 10.9%; in experiment [4], -3.72%; in experiment [5] it was 6.03%.

With `N#Cc1cccc(CN2CC[C@H](c3nc4ccccc4o3)C2)c1`, the activity change, negative = inhibition in experiment [1] was -6.9%; in experiment [2] it was -2.6%; in experiment [3] it was -3.09%; in experiment [4] it was -3.86%; in experiment [5], -8.47%.

Take `Cn1cc(CCn2cnc(-c3cnn(C)c3)c2-c2ccc(C#N)cc2)cn1`: the activity change, negative = inhibition was 5.79% in experiment [1]; 4.56% in experiment [2]; -8.03% in experiment [3]; -6.79% in experiment [4]; 2.48% in experiment [5].

Take `COC1C(=O)N(CC2CC2)C12CCN(S(=O)(=O)c1ccc3c(c1)OCCO3)CC2` (stereo not given): the activity change, negative = inhibition in experiment [1] is -1.65%; in experiment [2] it was -1.76%; in experiment [3], -1.2%; in experiment [4] it was -38.4%; in experiment [5], -1.33%.

As for `O=C(CCc1nnc2n(Cc3ccccc3)c(=O)c3ccccc3n12)N1CCN(c2cccc(Cl)c2)CC1`, the activity change, negative = inhibition is -4.83% in experiment [1]; 2.44% in experiment [2]; 6.97% in experiment [3]; 1.86% in experiment [4]; 2.29% in experiment [5].

As to `COc1ccc(-c2nc3cc(C(=O)NCC(C)C)ccc3o2)cn1`, the activity change, negative = inhibition was -5.86% in experiment [1]; -8.8% in experiment [2]; -3.4% in experiment [3]; -11.7% in experiment [4]; 3.86% in experiment [5].

Consider `c1cc(-c2nc(C3CCOC3)nn2C2CCCCC2)co1` (stereo not given), for which the activity change, negative = inhibition was -3.8% in experiment [1]; -3.58% in experiment [2]; -0.954% in experiment [3]; -7.8% in experiment [4]; -10% in experiment [5].

On to `CC(C)N1C(=O)c2cc3occc3n2CC1(C)C(=O)NC1CCCCCCC1` (stereo not given), for which the activity change, negative = inhibition is -7% in experiment [1]; 1.57% in experiment [2]; -3.47% in experiment [3]; -4.96% in experiment [4]; -5.24% in experiment [5].

`CC(C)C1=NOC2(CCCN(C(=O)c3ccccn3)C2)C1` (stereo not given): the activity change, negative = inhibition in experiment [1] amounted to 1.12%; in experiment [2], 1.32%; in experiment [3], 1.96%; in experiment [4], 0.458%; in experiment [5] it was 0.703%.

Regarding `CCc1ccc(CNC(=O)Cn2ccc3cc(S(=O)(=O)N4CCC(C)CC4)ccc32)cc1`, the activity change, negative = inhibition is -0.486% in experiment [1]; 3.62% in experiment [2]; -1.55% in experiment [3]; -0.674% in experiment [4]; 0.518% in experiment [5].

On to `COC(=O)c1cc2n(n1)CC(C)(C(=O)NC1CCCCCC1)N(c1ccccc1C)C2=O` (stereo not given), for which the activity change, negative = inhibition is -3.33% in experiment [1]; -0.114% in experiment [2]; -4.31% in experiment [3]; -16% in experiment [4]; -7.57% in experiment [5].

For the compound `Cc1ccc(-c2cc(C(=O)Nc3ccc4c(c3)C(=O)N(C)C3=NCCN34)c3ccccc3n2)cc1C`, the activity change, negative = inhibition was -9.51% in experiment [1]; -3.77% in experiment [2]; -5.53% in experiment [3]; -7.13% in experiment [4]; -6.98% in experiment [5].

With `CCc1cccc(NC(=O)Cn2nc3n(C)c(=O)c4ccc(C(=O)NC5CCCCC5)cc4n3c2=O)c1`, the activity change, negative = inhibition came to 3.06% in experiment [1]; 6.29% in experiment [2]; 5.3% in experiment [3]; 2.16% in experiment [4]; 0.122% in experiment [5].

In the case of `O=C(c1cnc2c(c1)CCCC2)N1CCCn2nc(CO)cc2C1`, the activity change, negative = inhibition in experiment [1] was -6.04%; in experiment [2], -4.42%; in experiment [3], -4.4%; in experiment [4], -6.11%; in experiment [5], -4.98%.

On to `COc1cccc(CN2C(=O)c3cc(-c4ccccc4)nn3CC2(C)C(=O)NCc2ccccc2)c1OC` (stereo not given), for which the activity change, negative = inhibition is -0.765% in experiment [1]; 0.524% in experiment [2]; -0.823% in experiment [3]; -6.92% in experiment [4]; -2.96% in experiment [5].

Consider `C=C1C[C@@]23CC[C@H]4[C@@](C)(CCC[C@@]4(C)C(=O)OC4OC(CO)C(O)C(O)C4O)[C@@H]2CC[C@]1(OC1OC(CO)C(O)C(O)C1OC1OC(CO)C(O)C(O)C1O)C3` (stereo not given in full), for which the activity change, negative = inhibition is -5.98% in experiment [1]; 1.15% in experiment [2]; -2% in experiment [3]; -9.94% in experiment [4]; 2.04% in experiment [5].

`CCn1c(=O)sc2cc(NS(=O)(=O)c3ccc4c(c3)n(C)c(=O)n4C)ccc21`: the activity change, negative = inhibition in experiment [1] is 1.46%; in experiment [2], 0%; in experiment [3], 8.04%; in experiment [4], -2.68%; in experiment [5] it was 2.93%.

As to `O=C(NC1CCCCCC1)c1nnn2cc(-c3ccccc3)[nH]c(=O)c12`, the activity change, negative = inhibition in experiment [1] was -27.8%; in experiment [2], -4.61%; in experiment [3], -32.1%; in experiment [4], -20.2%; in experiment [5], 9.28%.

On to `CN(Cc1cccc(C(F)(F)F)c1)Cc1nc(-c2ccccc2)no1`, for which the activity change, negative = inhibition in experiment [1] was -1.87%; in experiment [2], 4.33%; in experiment [3], 4.49%; in experiment [4], -1.39%; in experiment [5], -10.6%.

Turning to `Cc1nnc([C@H]2CCN(Cc3ncc[nH]3)C2)o1`, the activity change, negative = inhibition in experiment [1] was -0.624%; in experiment [2], -0.855%; in experiment [3], 1.11%; in experiment [4] it was -0.993%; in experiment [5], -2.29%.

As to `CN(C(=O)Cn1c(=O)oc2cc(S(=O)(=O)N3CCCC3)ccc21)c1ccc(Br)cc1`, the activity change, negative = inhibition in experiment [1] is 14.8%; in experiment [2], 0%; in experiment [3], 12.7%; in experiment [4], -0.758%; in experiment [5], 4.99%.

Take `CCOC(=O)[C@H]1C[C@]2(CCCCNC2=O)N(C(=O)c2cccc(OC)c2)[C@H]1c1ccco1`: the activity change, negative = inhibition was -1.24% in experiment [1]; 1.66% in experiment [2]; 2.08% in experiment [3]; -2.49% in experiment [4]; -4.51% in experiment [5].

For the compound `CN(C)C(=O)/N=N/C(=O)N(C)C`, the activity change, negative = inhibition in experiment [1] was -47.1%; in experiment [2], 5.58%; in experiment [3], 0.603%; in experiment [4], -3.59%; in experiment [5], 4.93%.

Regarding `Cc1ccccc1CN1C(=O)c2cc(C3CC3)nn2CC1(C)C(=O)NC1CCCCCC1` (stereo not given), the activity change, negative = inhibition was -3.53% in experiment [1]; 1.18% in experiment [2]; -1.66% in experiment [3]; -16.3% in experiment [4]; 1.17% in experiment [5].
